Experiment [1] has as its target T1, RBFOX1 RRM RbFoxmut (Fox-RRM*) (Homo sapiens, UniProt Q9NWB1 109-208, R118D;E147R;N151S;E152T).
T1 sequence: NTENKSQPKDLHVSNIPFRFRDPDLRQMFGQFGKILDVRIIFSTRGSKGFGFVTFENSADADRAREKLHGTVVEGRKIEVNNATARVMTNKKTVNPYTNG
As to the kind of experiment: EMSA; HiTS-Eq, 1 nM pool, 10 min; buffer printed only for the single-RNA assays: 10 mM Tris pH 7.5, 150 mM NaCl, 3.4 mM EDTA, 0.001% NP-40, 30 C. To be noted: tags: His6 N-terminal (pET28a); label: 5' 32P. In outline:
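These values rest on relative association constants, computed from read-count changes of each RNA species versus the control reaction and normalised to the cognate motif. Reads came from free RNA recovered by 8% native PAGE after purified RbFox RRM (wild type or mutant) at increasing concentrations was equilibrated for 10 min in 50 µL with 1 nM of a 5′-radiolabelled pool with 7 randomized nucleotides and DNA-annealed flanks.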
On the technique in general: Mobility shift assays separate free from complexed probe on a gel.

For experiment [2], the target named is T1, RBFOX1 RRM RbFoxmut (Fox-RRM*). As to the kind of experiment: competition; 10 mM Tris pH 7.5, 150 mM NaCl, 3.4 mM EDTA, 0.001% NP-40, 30 C. To be noted: tags: His6 N-terminal (pET28a).

Residue numbers refer to the chain shown, from its start. The list shows a part of the results.

B1: GGAGUGU (DNA:RNA)
RNA: GGGAGACCGGAAUUCAGAUUGUCCGGAGUGUUUAAAUCCCGUCGUAGCCACCA
DNA 1: CAATCTGAATTCCGGTCTCCC
DNA 2: TGGTGGCTACGACGGGATT
Turning to B1, in experiment [1], the binding signal was 0.215 KA relative to UGCAUGU.

B2: UUAAAGA (DNA:RNA)
RNA: B1 RNA with G25U, G26U, G28A, U29A, U31A
DNA 1: CAATCTGAATTCCGGTCTCCC
DNA 2: TGGTGGCTACGACGGGATT
As to B2, in experiment [1], the binding signal is 0.0655 KA relative to UGCAUGU.

B3: AUCAUAG (DNA:RNA)
RNA: B1 RNA with G25A, G26U, A27C, G28A, G30A, U31G
DNA 1: CAATCTGAATTCCGGTCTCCC
DNA 2: TGGTGGCTACGACGGGATT
Consider B3, for which the binding signal in experiment [1] was 0.152 KA relative to UGCAUGU.

B4: AGACCUU (DNA:RNA)
RNA: B1 RNA with G25A, G28C, U29C, G30U
DNA 1: CAATCTGAATTCCGGTCTCCC
DNA 2: TGGTGGCTACGACGGGATT
With B4, the binding signal in experiment [1] was 0.0711 KA relative to UGCAUGU.

B5: UGGACGC (DNA:RNA)
RNA: B1 RNA with G25U, A27G, G28A, U29C, U31C
DNA 1: CAATCTGAATTCCGGTCTCCC
DNA 2: TGGTGGCTACGACGGGATT
B5: the binding signal in experiment [1] is 0.0795 KA relative to UGCAUGU.

B6: UCGGGUG (DNA:RNA)
RNA: B1 RNA with G25U, G26C, A27G, U29G, G30U, U31G
DNA 1: CAATCTGAATTCCGGTCTCCC
DNA 2: TGGTGGCTACGACGGGATT
As to B6, the binding signal in experiment [1] is 0.175 KA relative to UGCAUGU.

B7: UGAUCUA (DNA:RNA)
RNA: B1 RNA with G25U, G28U, U29C, G30U, U31A
DNA 1: CAATCTGAATTCCGGTCTCCC
DNA 2: TGGTGGCTACGACGGGATT
For the molecule B7, the binding signal in experiment [1] was 0.0664 KA relative to UGCAUGU.

B8: CAACUGG (DNA:RNA)
RNA: B1 RNA with G25C, G26A, G28C, U31G
DNA 1: CAATCTGAATTCCGGTCTCCC
DNA 2: TGGTGGCTACGACGGGATT
As to B8, in experiment [1], the binding signal was 0.0703 KA relative to UGCAUGU.

B9: AAUAUUC (DNA:RNA)
RNA: B1 RNA with G25A, G26A, A27U, G28A, G30U, U31C
DNA 1: CAATCTGAATTCCGGTCTCCC
DNA 2: TGGTGGCTACGACGGGATT
Regarding B9, the binding signal in experiment [1] is 0.0803 KA relative to UGCAUGU.

B10: GCUUAUA (DNA:RNA)
RNA: B1 RNA with G26C, A27U, G28U, U29A, G30U, U31A
DNA 1: CAATCTGAATTCCGGTCTCCC
DNA 2: TGGTGGCTACGACGGGATT
For B10, the binding signal in experiment [1] was 0.119 KA relative to UGCAUGU.

B11: CCUUCCG (DNA:RNA)
RNA: GGGAGACCGGAAUUCAGAUUGUCCCCUUCCGUUAAAUCCCGUCGUAGCCACCA
DNA 1: CAATCTGAATTCCGGTCTCCC
DNA 2: TGGTGGCTACGACGGGATT
As to B11, the binding signal in experiment [1] was 0.088 KA relative to UGCAUGU.

B12: CAAUGUC (DNA:RNA)
RNA: B11 RNA with C26A, U27A, C29G, C30U, G31C
DNA 1: CAATCTGAATTCCGGTCTCCC
DNA 2: TGGTGGCTACGACGGGATT
Turning to B12, the binding signal in experiment [1] was 0.185 KA relative to UGCAUGU.

B13: ACGCCGA (DNA:RNA)
RNA: B11 RNA with C25A, U27G, U28C, C30G, G31A
DNA 1: CAATCTGAATTCCGGTCTCCC
DNA 2: TGGTGGCTACGACGGGATT
On to B13, for which the binding signal in experiment [1] was 0.0979 KA relative to UGCAUGU.

B14: CACUAAU (DNA:RNA)
RNA: B11 RNA with C26A, U27C, C29A, C30A, G31U
DNA 1: CAATCTGAATTCCGGTCTCCC
DNA 2: TGGTGGCTACGACGGGATT
Regarding B14, the binding signal in experiment [1] was 0.0911 KA relative to UGCAUGU.

B15: AUCUCCG (DNA:RNA)
RNA: B11 RNA with C25A, C26U, U27C
DNA 1: CAATCTGAATTCCGGTCTCCC
DNA 2: TGGTGGCTACGACGGGATT
With B15, the binding signal in experiment [1] is 0.136 KA relative to UGCAUGU.

B16: CUUUCCG (DNA:RNA)
RNA: B11 RNA with C26U
DNA 1: CAATCTGAATTCCGGTCTCCC
DNA 2: TGGTGGCTACGACGGGATT
In the case of B16, the binding signal in experiment [1] is 0.0611 KA relative to UGCAUGU.

B17: UGGCACA (DNA:RNA)
RNA: B11 RNA with C25U, C26G, U27G, U28C, C29A, G31A
DNA 1: CAATCTGAATTCCGGTCTCCC
DNA 2: TGGTGGCTACGACGGGATT
B17: the binding signal in experiment [1] was 0.0913 KA relative to UGCAUGU.

B18: GCUUUCA (DNA:RNA)
RNA: B11 RNA with C25G, C29U, G31A
DNA 1: CAATCTGAATTCCGGTCTCCC
DNA 2: TGGTGGCTACGACGGGATT
For B18, in experiment [1], the binding signal is 0.08 KA relative to UGCAUGU.

B19: GCAGCGG (DNA:RNA)
RNA: B1 RNA with G26C, U29C, U31G
DNA 1: CAATCTGAATTCCGGTCTCCC
DNA 2: TGGTGGCTACGACGGGATT
As to B19, the binding signal in experiment [1] is 0.0958 KA relative to UGCAUGU.

In the case of CGAAUGU (ssRNA), in experiment [2], the binding signal was 31 nM.

B20: GACUCCG (DNA:RNA)
RNA: B11 RNA with C25G, C26A, U27C
DNA 1: CAATCTGAATTCCGGTCTCCC
DNA 2: TGGTGGCTACGACGGGATT
For B20, the binding signal in experiment [1] was 0.0876 KA relative to UGCAUGU.

B21: UGUGCUA (DNA:RNA)
RNA: B11 RNA with C25U, C26G, U28G, C30U, G31A
DNA 1: CAATCTGAATTCCGGTCTCCC
DNA 2: TGGTGGCTACGACGGGATT
On to B21, for which the binding signal in experiment [1] is 0.123 KA relative to UGCAUGU.

B22: GCUUACA (DNA:RNA)
RNA: B11 RNA with C25G, C29A, G31A
DNA 1: CAATCTGAATTCCGGTCTCCC
DNA 2: TGGTGGCTACGACGGGATT
Turning to B22, the binding signal in experiment [1] is 0.103 KA relative to UGCAUGU.

B23: AGAUAAC (DNA:RNA)
RNA: B1 RNA with G25A, G28U, U29A, G30A, U31C
DNA 1: CAATCTGAATTCCGGTCTCCC
DNA 2: TGGTGGCTACGACGGGATT
For B23, in experiment [1], the binding signal is 0.083 KA relative to UGCAUGU.

B24: GCUCACG (DNA:RNA)
RNA: B11 RNA with C25G, U28C, C29A
DNA 1: CAATCTGAATTCCGGTCTCCC
DNA 2: TGGTGGCTACGACGGGATT
For the molecule B24, in experiment [1], the binding signal is 0.106 KA relative to UGCAUGU.

B25: GCUACUU (DNA:RNA)
RNA: B11 RNA with C25G, U28A, C30U, G31U
DNA 1: CAATCTGAATTCCGGTCTCCC
DNA 2: TGGTGGCTACGACGGGATT
In the case of B25, in experiment [1], the binding signal is 0.0978 KA relative to UGCAUGU.

B26: CCCUUGU (DNA:RNA)
RNA: B11 RNA with U27C, C29U, C30G, G31U
DNA 1: CAATCTGAATTCCGGTCTCCC
DNA 2: TGGTGGCTACGACGGGATT
As to B26, the binding signal in experiment [1] is 0.106 KA relative to UGCAUGU.

B27: CCGUUGC (DNA:RNA)
RNA: B11 RNA with U27G, C29U, C30G, G31C
DNA 1: CAATCTGAATTCCGGTCTCCC
DNA 2: TGGTGGCTACGACGGGATT
Consider B27, for which the binding signal in experiment [1] is 0.11 KA relative to UGCAUGU.

B28: AGAAACC (DNA:RNA)
RNA: B1 RNA with G25A, G28A, U29A, G30C, U31C
DNA 1: CAATCTGAATTCCGGTCTCCC
DNA 2: TGGTGGCTACGACGGGATT
With B28, the binding signal in experiment [1] was 0.0413 KA relative to UGCAUGU.

B29: GUACUUG (DNA:RNA)
RNA: B1 RNA with G26U, G28C, G30U, U31G
DNA 1: CAATCTGAATTCCGGTCTCCC
DNA 2: TGGTGGCTACGACGGGATT
Take B29: in experiment [1], the binding signal is 0.113 KA relative to UGCAUGU.

B30: CCUGGAC (DNA:RNA)
RNA: B11 RNA with U28G, C29G, C30A, G31C
DNA 1: CAATCTGAATTCCGGTCTCCC
DNA 2: TGGTGGCTACGACGGGATT
For the molecule B30, the binding signal in experiment [1] was 0.103 KA relative to UGCAUGU.

These data come from paper PMC9911399, “Two distinct binding modes provide the RNA-binding protein RbFox with extraordinary sequence specificity”.
